According to PubChem BioAssay AID588855 (National Center for Advancing Translational Sciences (NCATS), 2011):
Screen size: about 410,000 compounds; about 5,000 (1.2%) were called active. Inconclusive results, whose numbers are uncertain, are shown with a selection of clear calls. Calls follow the shape of the dose curve; as a rule, active = well fitted inhibition curve with a large enough effect; inconclusive = small, poorly fitted or top-dose-only effect; inactive = no such curve, though single readings can be large or run the other way. Where the call is inconclusive, the potency comes from a doubtful curve fit.

Experiment: qHTS for Inhibitors of TGF-b; also: nearly all actives have a fitted effect of over 65% in size
Conditions: HepG2 CAGA-GFP TGF-b/SMAD3 reporter, GFP fluorescence, 18 h, TGF-beta stimulated, 500 pg/mL final; series mostly up to 46.1 µM
Method in brief: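 Using HEPG2 CAGA-GFP reporter cells at 1000 cells/well, we pinned test compounds, stimulated with recombinant TGF-beta (500 pg/mL final) and measured total well GFP after 18 h.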
Potency is read from the fitted curve at half-maximal effect; tags tell the direction and shape of the fitted curve.

SMILES	Potency
COc1cccc(-n2c(SCC(=O)NCCC3=CCCCC3)nc3n[nH]c(C)c3c2=N)c1	inconclusive: 35.5 µM [inhibitor, single point]
Cc1oc2c(c(=O)c1C)C(=O)CC(c1ccccc1)C2 (configuration not stated)	inactive
O=C(C[n+]1cccc(Br)c1)c1cccc([N+](=O)[O-])c1	inactive
COc1ccccc1COc1ccc2c(C)c(CCC(=O)O)c(=O)oc2c1C	inconclusive: 35.5 µM [inhibitor, single point]
Nc1[nH]n(-c2ccccc2)c(=O)c1N=Nc1ccccc1[N+](=O)[O-]	inactive
CCOC(=O)C(C)Oc1cccc2c(=O)n(CC(=O)Nc3ccc(OC)cc3)ccc12 (configuration not stated)	inactive
O=C(NNC1=Nc2ccccc2SC1)c1ccccc1F	inactive
O=C(NCc1cccnc1)C1CCN(Cc2cc3ccccc3n2Cc2ccccc2)CC1	inconclusive: 22.4 µM [inhibitor, single point]
CC(C)c1ccc(-c2noc(SCC(=O)N(C)c3ccc(F)cc3)n2)cc1	inconclusive: 15.8 µM [inhibitor, single point]
CCOC(=O)c1cc(OC(=O)c2cccc(F)c2)n(-c2ccccc2)n1	inactive
CCc1ccc(NC(=O)COC(=O)/C(=C/c2ccccc2OC)c2ccccc2)cc1	inactive
COc1nccnc1NS(=O)(=O)c1ccc(N=Cc2c(C)[nH]n(-c3ccc(C)c(C)c3)c2=O)cc1	inconclusive: 0.112 µM [inhibitor, full curve, poor fit]
Cn1c(N)c(C(=O)COC(=O)C2(c3cccc(F)c3)CCCC2)c(=O)n(C)c1=O	inconclusive: 20 µM [inhibitor, partial curve, poor fit]
COc1ccc(C(CNC(=O)c2oc3ccc(OC)cc3c2C)N2CCCC2)cc1 (configuration not stated)	inconclusive: 1 µM [inhibitor, full curve]
Nc1nonc1-n1nnc(C(=O)N/N=C/c2cccnc2)c1CSC1=NCCS1	inconclusive: 17.8 µM [inhibitor, single point]
CN(c1cccc(NC(=O)CN(c2cccc(Cl)c2)S(=O)(=O)c2ccccc2)c1)S(C)(=O)=O	inconclusive: 7.08 µM [inhibitor, partial curve]
Cc1cc(Nc2cccc(C(F)(F)F)c2)nc2ccc(NC(=O)c3cccnc3)cc12	inconclusive: 22.4 µM [inhibitor, partial curve, poor fit]
Cc1cc(-n2c(C)cc(C(=S)N3CCOCC3)c2C)ccc1Br	inactive
O=C(Nc1ccc(OC(F)(F)F)cc1)c1ccccc1-n1cnnn1	inactive
CC1CC1C(=O)OCC(=O)N(C)c1c(N)n(Cc2ccccc2)c(=O)[nH]c1=O (configuration not stated)	inactive
O=C(CCCC1=NS(=O)(=O)c2ccccc2N1)N1CCN(c2ccc(Cl)cc2)CC1	inconclusive: 3.55 µM [inhibitor, partial curve, poor fit]
O=C(COc1cccc(NC(=O)c2cccc([N+](=O)[O-])c2)c1)c1ccc(Br)cc1	inconclusive: 15.8 µM [inhibitor, single point]
COc1cc(/C=C/c2nc3cc(Cl)ccc3c(=O)n2-c2ccc(C)cc2C)cc(OC)c1OC	inconclusive: 0.1 µM [inhibitor, full curve, poor fit]

SMILES	Potency
CCCCN(CC)C(=O)c1ccc(-c2ccccc2)cc1	inconclusive: 20 µM [inhibitor, single point]
CSc1ccc(NC(=O)Cn2nnnc2-c2ccccc2F)cc1	inactive
C[C@H](CO)NC(=O)c1[nH]cnc1C(=O)Nc1cccc(Cl)c1	inactive
O=C(NCC1CCCO1)c1sc2ccccc2c1Cl (configuration not stated)	inactive
Cc1cccc(CNC(=O)c2cc(S(=O)(=O)N3CCOCC3)cn2C)c1	inactive
COc1cccc(CNC(=O)Cn2c(SCC(=O)Nc3ccc(C)c(C)c3)nc3ccccc32)c1	inconclusive: 22.4 µM [inhibitor, single point]
Cn1nnnc1SCC(=O)N1c2ccccc2CCc2ccccc21	inactive
C=CCn1c(=O)c(C(=O)NCc2ccccc2Cl)c(O)c2ccccc21	inconclusive: 11.2 µM [inhibitor, partial curve]
Cc1nc(N2CCN(C(=O)COc3ccccc3)CC2)c2c(C)c(C)sc2n1	inconclusive: 10 µM [inhibitor, partial curve]
Cc1ccc(-c2nc3ccc(Cl)cn3c2Cc2ccccc2C(F)(F)F)cc1	inconclusive: 35.5 µM [inhibitor, single point]
Cc1[nH]n(-c2ccccc2)c(=O)c1C(=O)c1ccc([N+](=O)[O-])cc1	inactive
CCc1nc2ccccc2c(=O)n1NC(=O)c1c(O)c2ccccc2[nH]c1=O	inactive
Cc1ccc(NC(=O)C2CCCN(S(=O)(=O)c3c(C)nn(C)c3C)C2)c(C)c1 (configuration not stated)	inconclusive: 35.5 µM [inhibitor, single point]
COc1ccc([C@H]2CC(=O)C=C(c3cccc(F)c3OC)C2)cc1	inconclusive: 35.5 µM [inhibitor, single point]
COc1ccc(-n2c(SCC(=O)Nc3ccc(Cl)cc3)nc(O)c(Cc3ccccc3)c2=O)cc1	inconclusive: 35.5 µM [inhibitor, single point]
CCOc1cc(N2CCOCC2)c(OCC)cc1NC(=O)COC(=O)COc1ccc(C#N)cc1	inactive
O=C(c1cccc(S(=O)(=O)Nc2ccc(Br)cc2)c1)N1CCCC1	inconclusive: 0.794 µM [inhibitor, full curve]
CCOc1ccc(C2C(C(N)=O)=C(C)Nc3nc(-c4cccc(Cl)c4)nn32)cc1OC (configuration not stated)	inactive
COc1ccc(-c2cn(-c3ccc(SC(F)F)cc3)c3[n+]2CCC3)cc1OC	inconclusive: 14.1 µM [inhibitor, partial curve, poor fit]
CCOc1ccc(-n2nnnc2SCC(=O)c2ccccc2)cc1	inconclusive: 35.5 µM [inhibitor, single point]
Cc1cccc(OCCSc2nc3ccccc3n2CC(=O)N2CCOCC2)c1C	inactive
COc1ccc(-c2c(-c3cc(OC)cc(OC)c3)n(C)c3ccc(-c4cc(F)cc(OC)c4)cc23)cc1	inactive
CC1CCN(C(=O)COC(=O)c2cccc(S(=O)(=O)N3CCOCC3)c2)CC1	inactive

SMILES	Potency
CC(C)(C)NC(=O)CSc1nc(Cc2ccccc2)nc2ccccc12	inconclusive: 10 µM [inhibitor, partial curve]
CCCCC(CC)C(=O)Nc1ccc(Nc2ccccc2)cc1 (configuration not stated)	inconclusive: 35.5 µM [inhibitor, single point]
CC(C)(C)NS(=O)(=O)c1cccc(S(=O)(=O)c2cccc(S(=O)(=O)NC(C)(C)C)c2)c1	active: 12.6 µM
CC(NC(=O)CN1CCN(CC(=O)Nc2ccccc2Cl)CC1)c1ccc(Br)cc1 (configuration not stated)	inconclusive: 35.5 µM [inhibitor, single point]
Cn1c(=O)c2c(nc(CN3CCN(c4ccccc4F)CC3)n2CCCc2ccccc2)n(C)c1=O	inconclusive: 5.62 µM [inhibitor, partial curve, poor fit]
CN1CCC(=O)N([C@H](CN=[N+]=[N-])Cc2ccccc2)CC1	inactive
O=S1(=O)[C@H]2C[C@H](CO)O[C@@]2(CO)CN1Cc1ccc(-c2ccc(F)cc2)cc1	inconclusive: 15.8 µM [inhibitor, single point]
Cc1ccc(OCC(O)Cn2c(=N)n(Cc3ccccc3)c3ccccc32)cc1 (configuration not stated)	inconclusive: 20 µM [inhibitor, single point]
CN1C(=O)C(O)(CC(=O)c2ccccn2)c2cc(Br)ccc21 (configuration not stated)	inconclusive: 35.5 µM [inhibitor, single point]
COc1cc(NC(=O)c2ccccc2[N+](=O)[O-])ccc1NC(=O)c1cc2ccccc2o1	inconclusive: 25.1 µM [inhibitor, single point]
CN(C)C(=O)c1cccc(-c2cnc3sc(NCc4ccc5c(c4)OCO5)nn23)c1	active: 10 µM
O=C(C1CCCC1)N1CCC(CC2CC(c3ccc(Cl)cc3)=NO2)(C(=O)NCC2CCCCC2)CC1 (configuration not stated)	inconclusive: 35.5 µM [inhibitor, single point]
O=C(CN1C(=O)C2(SCC(=O)N2c2ccc(Cl)cc2)c2ccccc21)NCCc1ccccc1 (configuration not stated)	inactive
Cc1ccc(O)c(NC(=O)CCSc2nc(-c3ccco3)cc(C(F)(F)F)n2)c1	inconclusive: 35.5 µM [inhibitor, single point]
Cc1ccc(Cn2c(C)c3cnn(CC(=O)N4CCN(c5ccc(F)cc5)CC4)c(=O)c3c2C)cc1	inconclusive: 12.6 µM [inhibitor, partial curve]
O=C(/C=C/c1ccccc1)N1CCN(Cc2cc(=O)n3nc(-c4ccccc4Cl)sc3n2)CC1	inconclusive: 1.12 µM [inhibitor, partial curve, poor fit]
O=S(=O)(c1ccc(F)cc1)N1CCCC(c2nc(-c3ccc(F)cc3)no2)C1 (configuration not stated)	inactive
Cc1c([N+](=O)[O-])cc(S(=O)(=O)Nc2ccc(-c3ccc(N4CCCC4)nn3)cc2)cc1[N+](=O)[O-]	inconclusive: 35.5 µM [inhibitor, single point]
Cc1ccc(C(C)C)c(OCC(=O)NNCC(=O)Nc2cccc(F)c2)c1	inconclusive: 31.6 µM [inhibitor, single point]
COc1ccc(N2CC(C(=O)Nc3cc(C)on3)CC2=O)cc1 (configuration not stated)	inconclusive: 2.82 µM [inhibitor, single point]
Cc1cc(C)cc(C(=O)NC(CC(N)=O)c2ccc(N3CCC(Br)CC3)c([N+](=O)[O-])c2)c1 (configuration not stated)	inconclusive: 5.62 µM [inhibitor, single point]
